In the supplement of paper PMC7726561:
The full ranking holds about 1,400 sequences; the median of “thermal melting temperature (Tm) of peptide-HLA complex” is about 60, and the lowest 2% start at about 45. This is one part of the list.
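Also: cell lysates heated 10 min at 37–73 °C, remaining pHLA pulled down with pan-class I antibody, peptides quantified by DIA-MS versus 37 °C, Tm where half the complex is lost.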

The sequences below were run against HLA-B*07:02 (assay: thermal melting temperature (Tm) of peptide-HLA complex; higher = more thermostable pHLA complex). Details: C1R-B*07:02.
Sequence MPRHFATKL has a thermal melting temperature of 58.3 °C.
Sequence RPYPSPGAVL has a thermal melting temperature of 60.4 °C.
Sequence QPHVNGRLAM has a thermal melting temperature of 51.5 °C.
For VPRLPGETL, the thermal melting temperature was 64.1 °C.
For SPMADRSMM, the thermal melting temperature was 59.5 °C.
For IPAKLHNSL, the thermal melting temperature was 55.5 °C.
In the case of VPRLNSSPLAL, the thermal melting temperature is reported as 49.1 °C.
In the case of FPSSVRIHLL, the thermal melting temperature is reported as 54.3 °C.
In the case of RPIYPVEEL, the thermal melting temperature is reported as 58.8 °C.
With RPVLPLML the thermal melting temperature was 60 °C.
Sequence SPYQGGVFF has a thermal melting temperature of 60.3 °C.
RPAVSLTL was tested, and the thermal melting temperature was 60.5 °C.
Work on SPYQNIKIL yielded a thermal melting temperature of 61.2 °C.
For VPQVKASAL, the thermal melting temperature was 59 °C.
For APYAASRLL, the thermal melting temperature was 58.2 °C.
Sequence NVRPVPLEL has a thermal melting temperature of 60.2 °C.
With MPYDSNRVVL the thermal melting temperature was 56 °C.
Sequence KPRSLQTGF has a thermal melting temperature of 58.5 °C.
Sequence IPQGGRGAIQF has a thermal melting temperature of 60.3 °C.
In the case of FPHPLPSL, the thermal melting temperature is reported as 61.6 °C.
Sequence KPYIRTSL has a thermal melting temperature of 61.2 °C.
With SINAQRNAL the thermal melting temperature was 54.2 °C.
For SPLTKSISL, the thermal melting temperature was 60.6 °C.
Work on APSRNGMVL yielded a thermal melting temperature of 56.7 °C.
RPFPGLVI showed a thermal melting temperature of 63 °C.
With SPFGSSFRTF the thermal melting temperature was 58.1 °C.
For LPADFGRLV, the thermal melting temperature was 56.6 °C.
Work on LPQLPLAAL yielded a thermal melting temperature of 59 °C.
In the case of RPLTSPESL, the thermal melting temperature is reported as 54.2 °C.
Sequence HPRIASGLGL has a thermal melting temperature of 59.2 °C.
For LPRPPMLLA, the thermal melting temperature was 62.3 °C.
With APAPTVRLGL the thermal melting temperature was 61.5 °C.
TPRVPDNSL showed a thermal melting temperature of 60.7 °C.
For YPLLKNISM, the thermal melting temperature was 62.6 °C.
FPRHIEPEL was tested, and the thermal melting temperature was 52.1 °C.
With GPTQPPLSL the thermal melting temperature was 61.5 °C.
APGIRSWSL was tested, and the thermal melting temperature was 62.1 °C.
In the case of LPRSEVTFL, the thermal melting temperature is reported as 62.1 °C.
LPRSIGNLTQL gave a thermal melting temperature of 62.2 °C.
YPKGAGEML was tested, and the thermal melting temperature was 59.3 °C.
Sequence RPSSHPLIF has a thermal melting temperature of 61.9 °C.
For APFEPLASGIL, the thermal melting temperature was 60.7 °C.
For RPKPIITSV, the thermal melting temperature was 59.6 °C.
IPRTPLSPSPM showed a thermal melting temperature of 59.5 °C.
Work on RPRPDPSPEI yielded a thermal melting temperature of 51.7 °C.
For SPVSRIGL, the thermal melting temperature was 54 °C.
Work on AVEPGRPPL yielded a thermal melting temperature of 59.3 °C.
Work on TPRSPPLGL yielded a thermal melting temperature of 62.3 °C.
With KPSAEFITL the thermal melting temperature was 62.6 °C.
Work on MPRPPETFL yielded a thermal melting temperature of 61.1 °C.
MPDSLRSGEYL showed a thermal melting temperature of 59.7 °C.
Work on TPRLPQRNL yielded a thermal melting temperature of 56.9 °C.
For IPAAPVPSL, the thermal melting temperature was 62 °C.
For LPAPKGPAL, the thermal melting temperature was 57.9 °C.
IPDEAKALSLL gave a thermal melting temperature of 63.3 °C.
In the case of QPAVPLARAF, the thermal melting temperature is reported as 54.1 °C.
